Screen size: about 52,000 compounds; about 1,700 (3.3%) were called active. Rule as the data show it: active = survival mostly below about 52% (no sharp cut-off); inactive = mostly above about 56%. The list shows a part of the results.
Test system: Wild type
Assay: growth inhibition of S. aureus wild type versus tarO mutant, primary screen, teichoic acid synthesis inhibitors, RN4220, OD600 (AID 463173)
Settings: S. aureus RN4220 wild type/DeltatarO growth, OD600, 18 h, active compounds read low, screened at 18.75 µg/mL (by protocol)

SMILES | survival
Cc1cc(C)cc(NC(=O)C(=O)NCCCN2CCOCC2)c1 | inactive: 76%
Cc1ccc2cc3cc(C(=O)N4CCN(c5ccccc5)CC4)oc3nc2c1 | inactive: 55%
O=C(Nc1nc2ccc(S(=O)(=O)N3CCCC3)cc2s1)c1ccc(F)cc1 | inactive: 65%
CC1CCCCN1CCCNC(=O)c1ccc2c(c1)sc1nc(-c3ccc(F)cc3)cn12 (stereo unspecified) | inactive: 26%
C/C(CC1CC(COCCC(C)C)OC1=O)=N\NC(N)=S (stereo unspecified) | inactive: 108%
CCc1ccc(Oc2c(C(F)(F)F)oc3c(CN4CCN(CC)CC4)c(O)ccc3c2=O)cc1 | inactive: 87%
CCOc1ccc(CN(C(=O)c2nc(SC)ncc2Cl)C2CCS(=O)(=O)C2)cc1 (stereo unspecified) | inactive: 87%
CC(C)CNCC1OCc2ccccc2CO1 | inactive: 98%
CCOC(=O)c1noc2ncnc(N3CCN(c4cccc(Cl)c4)CC3)c12 | inactive: 75%
CCOC(=O)N1CCc2c(sc3c2c(=O)n(-c2ccc(Cl)cc2)c(=O)n3Cc2cccc(OC)c2)C1 | inactive: 120%
COCCCNC(=O)c1ccc(Cn2c(=O)c3ccccc3n(CC(=O)Nc3ccc(C)cc3C)c2=O)cc1 | inactive: 100%
COc1ccc(-c2nc3nc(C)cc(N4CCN(c5cccc(C(F)(F)F)c5)CC4)n3n2)cc1 | inactive: 88%
Cc1cc(C)cc(NC(=O)Cn2nnc(C(=O)NCc3ccccc3Cl)c2N)c1 | inactive: 77%
COc1ccc(CCNC(=O)c2cc3c(s2)-c2c(C)cccc2OC3)c(OC)c1 | inactive: 103%
CCOc1ccc(C(=O)Nc2ccccc2C(=O)OCc2cc(=O)n3nc(C4CC4)sc3n2)cc1 | inactive: 78%
CC(C)c1cc(C(=O)NC(C)c2ccccc2)no1 (stereo unspecified) | inactive: 81%
Cc1ccc(-c2nc(S(=O)(=O)c3ccc(C)cc3)c(SCC(=O)Nc3ccc(F)cc3)o2)cc1 | inactive: 73%
CCN(Cc1ccccc1)C(=O)c1cc2c(=O)oc3ccc(C)cc3c2s1 | inactive: 83%
CCc1ccc(S(=O)(=O)c2nnn3c2nc(Nc2cc(OC)cc(OC)c2)c2cc(Cl)ccc23)cc1 | inactive: 95%
Cc1cccc(N2CC(c3nc4ccccc4n3CCC3CCCCC3)CC2=O)c1 (stereo unspecified) | inactive: 44%
Cc1cccc2c1-c1sc(C(=O)NCc3ccc(Cl)cc3)cc1CO2 | inactive: 95%
CCCCCSc1nnc2c(n1)OC(CC)Nc1ccc(Br)cc1-2 (stereo unspecified) | inactive: 61%

SMILES | survival
COCCn1c(C)cc(O)c(C(c2ccc(Cl)cc2)N2CCN(c3ccccc3)CC2)c1=O (stereo unspecified) | inactive: 65%
CN1C(C(=O)c2ccccc2)=C(NC(=O)c2ccccc2Br)c2ccccc2S1(=O)=O | inactive: 81%
COc1ccc(NC(=O)Nc2cccc(OCc3cc(=O)n4cccc(C)c4n3)c2)c(OC)c1 | inactive: 85%
CCn1c(=O)cc(SCC(=O)NCCc2cccc(C)c2)c2ccccc21 | inactive: 90%
O=S(=O)(c1ccc2[nH]c3c(c2c1)CCCC3)N1CCN(c2cccc(C(F)(F)F)c2)CC1 | inactive: 71%
Cc1nc2ccc(S(=O)(=O)NC(C(=O)N3CCN(c4ccc(Cl)cc4)CC3)C(C)C)cc2s1 (stereo unspecified) | inactive: 66%
CCc1ccc(NC(=O)Cc2csc(COc3cccc(C)c3)n2)cc1 | inactive: 97%
O=c1n(Cc2ccc(Cl)cc2)c2ccccc2c2nc(-c3ccccc3)nn12 | inactive: 51%
Cc1cc(C)cc(Nc2nc3ccccc3n3cnnc23)c1 | inactive: 87%
COc1cc(C2N=C(N)Nc3nc4ccccc4n32)ccc1OCC(=O)O (stereo unspecified) | inactive: 73%
CC(=O)c1ccc(N2CCN(c3nc4c(S(=O)(=O)c5ccc(C)c(C)c5)nnn4c4ccc(Cl)cc34)CC2)cc1 | inactive: 87%
Cc1cc(C)cc(-n2ccnc2SCC(=O)Nc2ccc(C)cc2C)c1 | inactive: 127%
COc1ccc(-c2cc(C(=O)NCc3ccc(F)cc3)no2)cc1 | inactive: 145%
O=C(CCCn1c(=O)c2ccccc2n(CC(=O)Nc2cccc(Cl)c2)c1=O)NCc1ccc2c(c1)OCO2 | inactive: 88%
CCOc1ccc2oc(=O)cc(CN3CCN(Cc4ccc(F)cc4)CC3)c2c1 | inactive: 86%
CCC(C(=O)Nc1cc(OC)ccc1OC)n1c(=O)c(C(F)(F)F)nc2ccccc21 (stereo unspecified) | inactive: 75%
CCC(=O)N1CCc2cc(Br)cc(S(=O)(=O)CCC(=O)N3CCN(c4ccc(OC)cc4)CC3)c21 | inactive: 66%
CC(C)c1ccc(Nc2ncnc3c2nc2n3CCCC2)cc1 | inactive: 87%
COc1cc(NC(=O)CNC(=O)Cn2ccc3ccccc3c2=O)cc(OC)c1OC | inactive: 130%
CCC(=O)Nc1ccccc1-c1nc2ccccc2n(C(C)C(=O)Nc2cccc(Cl)c2C)c1=O (stereo unspecified) | inactive: 78%
Cc1ccc(Cc2cnc(NC(=O)C3Cc4ccc(C)cc4C(=O)O3)s2)cc1 (stereo unspecified) | inactive: 82%
COc1ccc(CCNc2nc(-c3ccc(F)cc3)cc(C(F)(F)F)n2)cc1OC | inactive: 142%

SMILES | survival
COc1ccc(C(CNC(=O)c2cccc([N+](=O)[O-])c2)N2CCOCC2)cc1 (stereo unspecified) | inactive: 82%
COC(=O)c1cnn(-c2ccc(C(=O)Nc3ccc(OC(F)(F)F)cc3)cc2)c1N | inactive: 19%
CCc1ccc(NC(=O)CN2CCSc3ccc(S(=O)(=O)N4CCCC4)cc32)cc1 | active: -6%
CCNS(=O)(=O)c1ccc(S(=O)(=O)N(Cc2ccccn2)C2CCCCC2)cc1 | inactive: 107%
CCOc1ccc(S(=O)(=O)c2cn(C)c3ccccc3c2=O)cc1 | inactive: 81%
O=C1C(Cc2ccccc2)S/C(=N/N=C/c2ccco2)N1c1ccccc1 (stereo unspecified) | inactive: 108%
CC(NC(=O)c1c2c(nc3ccccc13)C(=O)N(C1CCCCC1)C2)c1ccccc1 (stereo unspecified) | inactive: 73%
Cc1ccc(CNC(=O)Cn2c(=O)ccc3cc(S(=O)(=O)N4CCCC4)ccc32)cc1 | inactive: 79%
Cc1ccc(NC(=O)CN2C(=O)CCn3nc(-c4cccn4C)cc32)c(Cl)c1 | inactive: 111%
CCN(C(=O)c1cccn(Cc2ccccc2C)c1=O)c1ccccc1 | inactive: 113%
CN(C)c1ccc(NC(=O)CN2C(=O)c3ccccc3Sc3ccc(C(=O)N4CCCC4)cc32)cc1 | active: -4%
CCOC(=O)C1CCN(C(=O)Cn2ncc3c4ccccc4n(Cc4ccccc4F)c3c2=O)CC1 | inactive: 83%
CCOC(=O)c1ccccc1NC(=O)c1ccco1 | inactive: 121%
Cc1cccc(N2CCN(CCCNC(=O)c3sc4ncccc4c3-n3cccc3)CC2C)c1 (stereo unspecified) | inactive: 79%
O=C(Cn1c(-c2cccs2)cc2cc(F)ccc21)NCCCN1CCN(c2ccccc2F)CC1 | inactive: 73%
Cc1nn(CCCC(=O)NCc2cccc(Cl)c2)c(=O)c2c1sc1ccccc12 | inactive: 84%
Cc1nnc(NC(=O)CSc2nnc3c(n2)[nH]c2ccccc23)s1 | inactive: 80%
Cc1ccc(F)cc1NC(=O)c1ccc(Cn2nc(N3CCN(c4ccccc4)CC3)ccc2=O)o1 | inactive: 127%
O=c1n(Cc2ccc(F)cc2)nc2n1-c1cc(Cl)ccc1OC2 | inactive: 76%
COc1ccc(NC(=O)C2CCN(c3nc4ccccc4nc3C(F)(F)F)CC2)cc1 | inactive: 130%
CCOc1ccccc1CNC(=O)c1cnc2c(-c3ccc(OCC)c(OCC)c3)c(C)nn2c1C | inactive: 72%
O=C(Cn1cc(SCc2ccccc2)c2ccccc21)N1CCCCCC1 | inactive: 83%

SMILES | survival
Cc1cc(NC(=O)C2CCCCC2)no1 | inactive: 109%
COc1ccc(-c2cn3nc(N4CCC(C(=O)Nc5ccc(Cl)cc5C)CC4)sc3n2)cc1 | inactive: 78%
Cc1oc(-c2ccc(C(=O)NCCc3ccc(Cl)cc3)cc2)nc1CSc1ccccc1 | inactive: 59%
COc1ccc(-n2nc(C(=O)NCCc3ccc(OC)c(OC)c3)c3c4ccccc4n(C)c3c2=O)cc1Cl | inactive: 91%
Cc1ccc(N2CCN(c3c(CN4CCCC4)c(=O)oc4ccccc34)CC2)c(C)c1 | inactive: 74%
Cc1ccc2c(c1)N(CC(=O)OCC(=O)NCc1ccccc1)C(=O)CO2 | inactive: 103%
COCCCNC(=O)c1c(NC(=O)c2cc(=O)c3ccccc3o2)sc2c1CCCC2 | inactive: 111%
Cc1ccc(-c2nc(SCC(=O)N3CCc4ccccc43)c3c(=O)n(C)c(=O)n(C)c3n2)cc1 | inactive: 81%
Cc1ccc2nc(-c3ccc(Cl)c(NC(=O)c4cccc([N+](=O)[O-])c4C)c3)oc2c1 | inactive: 127%
Cc1ccccc1CN1C(=O)c2ccccc2Sc2ccc(C(=O)OCc3ccco3)cc21 | inactive: 77%
CCOC(=O)C1CCC(CN(Cc2c(Cl)cccc2Cl)S(=O)(=O)c2ccc(Cl)cc2)CC1 (stereo unspecified) | inactive: 88%
CCn1ccc2cc(S(=O)(=O)N3CCC(C(=O)NCc4ccc(OC)cc4)CC3)ccc21 | active: -3%
O=C(NCc1ccccc1)c1ccc2c(c1)N(Cc1cccc(Cl)c1)C(=O)c1ccccc1S2(=O)=O | inactive: 74%
O=C(CCSc1nnc(-c2ccco2)o1)N1CCOCC1 | inactive: 94%
COc1cc(/C=C/c2nc3cc(Cl)ccc3c(=O)n2-c2cccc(C(F)(F)F)c2)cc(OC)c1OC | inactive: 72%
O=C(COCc1cc(-c2ccco2)on1)Nc1cccc(O)c1 | inactive: 73%
COc1ccc(-c2c(C#N)c(N)nc(OC)c2C#N)cc1 | inactive: 118%
COc1ccc(Cn2c(SCC(=O)Nc3ccc(OC)cc3)nc3ccccc32)cc1 | inactive: 85%
Cc1ccc(-c2nc3c(cnn3-c3ccccc3)c(=O)n2-c2cccc(Cl)c2)cc1 | inactive: 65%
CN(C)S(=O)(=O)c1ccc2c(c1)N(CC(=O)N1CCN(c3cccc(Cl)c3)CC1)CCS2 | inactive: 80%
